According to the RNAGym collection of RNA variant scans (doi:10.7554/elife.90254):
The source gives no read counts; variants with many changes may rest on few reads.

B1: LINE1-mini (parent)
chain: GGCAGAGCUCAACACAGCGUGGCAAAGUGGCUGUGGCUAGACUGCC

Variants of: B1
Experiment: self-cleavage, relative activity (ratio to wild type); higher = more cleavage; in vitro, sequencing; the parent is a self-cleaving ribozyme

Variant | self-cleavage
A24G G27A U38G | 0.01
A25G G36U C37U | 0.02
A25U G33A G35A | 0.09
A24U A26U A39G | 0.02
A25C U28C G36U | 0.03
A24U G36U C45A | 0.19
A24G C31A C37A | 0.17
A25G G27A U28G G40A | 0.08
A26C U34G A41C | 0.01
A25C G27C U38A | 0.14
A25C G27C C46U | 0.63
A26C G29C G35U | 0.02
A24G G36A C45G | 0
A26C U28G U34C G36A C45G | 0.01
A25C G30U U32A C46A | 0.03
A26G G30U G40C U43A C46G | 0.03
A25G G35A G36C A41U | 0.01
A25G G27A U38C | 0.01
A26C C37A A39G | 0.07
A25C G33A C45G | 0.05
A25C G36A C45G | 0.01
A25C C31G A39C | 0.31
A25U U38C C45G | 0.41
A24U G33A C37U | 0.13

Variant | self-cleavage
A25U C31G G40U C46U | 0.02
A25C G27A A39U G40A | 0.03
A24G C31A C45G | 0.05
A25C U32G C37A G44C | 0.04
A24U A26G U38G | 0.02
A24U C31A G35C | 0.06
A24U A41C G44A | 0.05
A25G U38A G44C | 0.15
A25U G27C G30A U34A | 0.09
A25G G30U G36A G40U C42A | 0.01
A24G G29A A41G C42U | 0.06
A26C G27U A39G | 0.05
A26C G30U G35A U38G C46U | 0
A25U U34C G36C | 0.07
A25C G36U C42U | 0.01
A24U G29C C31A | 0.68
A24U A25C C37A | 0.09
A24U A25C C37G | 0.07
A25U A39U U43G G44U C46U | 0.03
A25U A26G U32G | 0
A26C U28C C37U U43C | 0.02
A25U A26G G33A G44U | 0.03
A25U A26U A39C A41C C46A | 0.03
A25U U28C C42G G44A | 0.08

Variant | self-cleavage
A25G U28C G33C | 0.05
A25C C31G A39U G40U | 0.07
A25G G30U C31U G40C | 0
A24G G36U G40A | 0.05
A25C G40A C46A | 0.06
A24U A25U A26U U34A G40A | 0.03
A26C U32A U38A G40U | 0.01
A24U A26U G35A G40U | 0.01
A26C G30C A39U U43C C46A | 0.07
A24G C31G A41U | 0.01
A25G G30U C31G | 0.08
A25G C31G C45A | 0.02
A26C G30C C46U | 1.42
A25C A26U U28A G33U | 0.24
A24U U34A G36U | 0.04
A24G G27U U32G | 0.09
A25U U32G G40C | 0
A25G G30U A41C | 0.02
A24G G27C G29C | 0.11
A25U G29A C31U A41C | 0.02
A24U A41U C42G | 0.16
A24U A41U C42U | 0.1
A25U U43C C45A | 0.07
A25G G30A U38C C45G | 0.01

Variant | self-cleavage
A25G A26U U43C | 0.15
A25U G30U U38G U43G G44A | 0.01
A25G U32C C42A C45G C46U | 0
A25G G33C A41U | 0.01
A24G G27A A39C G40U U43C C45A C46G | 0.01
A25G A26U A41G | 0.01
A26G G29A A39G C42G C46U | 0.04
A26C C37G C45U | 0.15
A26C C37A C45A | 0.02
A25U U38C G40A | 0.04
A24U C31U G35A | 0.09
A26G G27C C46A | 0.62
A25G A41U C45U | 0.05
A25U C37A G44C | 0.05
A26C C31G C46U | 0.04
A25U G33A C37G | 0.03
A24U G35A G36A C46U | 0.04
A24U G27C C46A | 1.55
A24U G27C C46G | 0.39
A26C G40U A41U | 0.1
A25C G27A C37A C42G G44U C45U | 0
A25C U38A C46A | 0.04
A25U C31A C45U | 0.03
A26C G29C C46A | 1.33

Variant | self-cleavage
A26C G29A U43G C45G | 0.01
A25U A26G C46U | 1.22
A25C G27C G30A U34A | 0.22
A25U U43A C46U | 0.04
A24U G40C C45G C46A | 0.06
A25G G29U A39G A41C | 0.01
A24U U32G U38C | 0.06
A26G A39G A41G C42U | 0.05
A24G G29C U34A | 0.06
A25C G27A C46A | 0.26
A25G A26C G27C | 0.12
A24U G36U U38G U43G G44C | 0.01
A24G G36C G40C | 0.05
A26C A41C C46U | 0.07
A25G G35C C42U | 0.04
A26C U32A U43C | 0.31
A26C G30A G35U C37G | 0.05
A26G C42U C46U | 0.2
A25U G36U C37G C42U | 0.01
A24U G29U U43C G44C | 0.06
A25U G33C C37G | 0.03
A25C C37A C42U | 0.07
A24U G30A G35U | 0.05
A25U G40A C45G | 0.02

Variant | self-cleavage
A24U A25C G44C | 0.39
A24U C31U A39U | 0.03
A25U A39C U43C | 0.02
A24G G29C C37U | 0.03
A25G A26C G40A | 0.02
A25U G27C G29C | 0.51
A24U G36U C37A U43C | 0.04
A24U U32A C46G | 0.02
A26C A39U U43A | 0.04
A25C U43C G44A | 0.08
A25G A26G G30U C45U | 0.08
A25G G29U G36U G40A C45A | 0.02
A26C U28A C31G G44U | 0.04
A25U G27C A39G | 0.09
A25G G35U C37A | 0.08
A26C G29U G36U | 0.05
A24G U28C A39C A41G | 0.06
A24G G29U G40A | 0.44
A24G G29A G30C C46U | 0.68
A25U G35U G36C C45G | 0.04
A24G G27C G29U G30C G40U | 0.04
A24G G29U A39U | 0.3
A26C U28A U34A | 0.11
A25G G30A U32A | 0.06

Variant | self-cleavage
A25G U28A G29A C31G | 0.23
A25U G40U G44A | 0.05
A25U U28A G30C G36A G40U | 0.07
A25U A26C G29C | 0.13
A25C G36A G40U | 0.13
A25G U38G G40U | 0.11
A26C G35A G36A | 0.15
A24U A25C G33A | 0.03
A26G G29U U32A G40A | 0.11
A24U A26G C31U C45A | 0.02
A26G C37A C42A | 0.09
A24U A25C G40U | 0.05
A26C G35U C37U C46U | 0.04
A24G G30U C46U | 0.56
A24G G30U C46A | 1.39
A25U G36U A39G | 0.7
A26C G40U C45A | 0.05
A26C G40U C45U | 0.07
A25U A26G C42A | 0.24
A26C G30C C42A | 0.06
A24U G35U G44U | 0.14
A24G C31A U34A | 0.01
A24U G36C C42U | 0
